Measured values reported in PubChem BioAssay AID485344 (National Center for Advancing Translational Sciences (NCATS), 2010).
The campaign covered roughly 340,000 compounds. About 6,900 (2%) were called active. Rule as the data show it: active = inhibition above about 30%; inactive = below that, where a call was filed. The list shows a part of the results, in another mix than the full data. Where no call is shown, the source filed none. Where a structure was tested more than once in an assay, its records may differ in their call.

biological target: D(2) dopamine receptor (Homo sapiens) (UniProt P14416); assay: HTS Assay for Allosteric Antagonists of the Human D2 Dopamine Receptor: Primary Screen for Antagonists; details: HEK293 TREx D2 cells, calcium flux, dopamine EC80; at 10 µM; stronger effect = higher value; also: 0% is about no effect
Outline: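 Overnight-induced (tetracycline, 30 C) HEK293 T-REx cells carrying force-coupled D2 receive a no-wash calcium dye, then compound, then EC80 dopamine at 180 s; signals are read kinetically throughout.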

UniProt P14416, sequence (P14416 whole entry, looked up): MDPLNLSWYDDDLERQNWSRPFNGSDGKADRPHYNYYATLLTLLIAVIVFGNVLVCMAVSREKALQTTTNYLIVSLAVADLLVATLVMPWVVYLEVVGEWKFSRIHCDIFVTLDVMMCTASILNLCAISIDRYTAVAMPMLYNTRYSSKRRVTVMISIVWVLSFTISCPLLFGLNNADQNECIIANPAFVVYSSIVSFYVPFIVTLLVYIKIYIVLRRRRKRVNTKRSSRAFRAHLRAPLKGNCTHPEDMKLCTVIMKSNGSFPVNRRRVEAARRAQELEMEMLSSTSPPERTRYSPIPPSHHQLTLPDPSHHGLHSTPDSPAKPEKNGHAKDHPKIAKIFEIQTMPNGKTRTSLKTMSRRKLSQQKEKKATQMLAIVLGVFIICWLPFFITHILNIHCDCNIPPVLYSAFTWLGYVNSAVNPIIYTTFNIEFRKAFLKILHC

Row | SMILES | inhibition
1 | CCCCN(CC)CCCNC(=O)c1nn(C)c2c1CSc1ccccc1-2 | 12.5%
2 | Cc1ccccc1C(=O)n1nc(-c2cccnc2)nc1NCc1ccccc1 | -13.2%
3 | CCn1cc2nc(SCC(=O)Nc3ccccc3C(F)(F)F)n(Cc3ccc(C)cc3)c(=O)c2n1 | -9.14%
4 | CCOC(=O)c1c(C)[nH]c(CCC(=O)Nc2ccc(OC)c(OC)c2)c1C | -10.1%
5 | CC(C)NC(=O)CCC(=O)N1Cc2ccccc2Oc2ncccc21 | -3.79%
6 | Cc1noc(C)c1S(=O)(=O)N1CCC(C(=O)N2CCN(c3cccc(C(F)(F)F)c3)CC2)CC1 | -5.28%
7 | CCC1CCCCN1C(=O)CSc1nc2c([nH]c3ccccc32)c(=O)n1-c1ccc(OC)cc1 (stereo not drawn) | -6.21%
8 | CCOc1ccccc1CNc1nc2nc(C)cc(C)n2n1 | -2.07%
9 | Cc1ccc(Cn2c(C(C)NC(=O)c3ccccc3)nc3ccccc32)cc1 (stereo not drawn) | 0.648%
10 | Cc1ccccc1CN1C(=O)c2ccccc2S(=O)(=O)c2ccc(C(=O)OCC3CCCO3)cc21 (stereo not drawn) | 2.89%
11 | Cc1ccc(C(C)C)c(OC(C)C(=O)NCC2(N(C)C)CCCCC2)c1 (stereo not drawn) | -3.22%
12 | COc1ccc(NC(=O)c2sccc2SCC#N)cc1 | active: 31.6%
13 | COc1ccc(S(=O)(=O)Nc2cc(S(=O)(=O)c3ccccc3)c(O)c(C)c2C)cc1 | -1.55%
14 | Cc1cc(OC(C)C(=O)Nc2sc3c(c2C(N)=O)CCCC3)ccc1Cl (stereo not drawn) | 8.72%
15 | CC(NC(=O)CN1C(=O)c2cccnc2Oc2ccc(Cl)cc21)c1ccccc1 (stereo not drawn) | -3.5%
16 | CC(CN1c2ccccc2Sc2ccccc21)N(C)C (stereo not drawn) | active: 54.1%
17 | COc1ccc(-c2cc3ccc(O)c(CN4CCC(C)CC4)c3oc2=O)cc1OC | -4.33%
18 | Cc1cccc(Cn2cccc2CNS(=O)(=O)c2ccc(Br)cc2)c1 | 11.7%
19 | COc1cc(-c2nnc(SCCOc3cc(C)cc(C)c3)o2)cc(OC)c1OC | 9.82%
20 | Cc1ccc(-c2nnc(Nc3ccc(F)cc3)c3ccccc23)cc1S(=O)(=O)N1CCN(C)CC1 | 5.57%
21 | Cc1ccc(CNCc2cccn2-c2nnc(N3CCCC3)s2)cc1 | 17.1%
22 | CCOc1cccc2c1Oc1nc(-c3ccccc3)nc(SCC(=O)Nc3ccc(F)cc3)c1C2 | 5.35%
23 | O=C(c1ccccc1Cl)N1CCCCC1CCN1CCOCC1 (stereo not drawn) | -7.78%
24 | COc1ccc(C2Nc3ccccc3NC3=C2C(=O)CC(C)(C)C3)cc1OC (stereo not drawn) | active: 37.9%

Row | SMILES | inhibition
25 | COc1ccc(Cn2c(=S)[nH]c3cc(C(=O)NCCCN4CCOCC4)ccc3c2=O)cc1 | active: 35.6%
26 | Cc1cc2n(n1)CCC(=O)N2Cc1ccc(C(=O)Nc2ccc(F)cc2F)cc1 | -20.6%
27 | COc1ccc(-c2nc3scc(CCNC(=O)c4cccc(Br)c4)n3n2)cc1 | -4.07%
28 | COc1ccc(NC(=O)c2sc3nc4c(c(-c5ccc(OC)cc5)c3c2N)C(=O)CC(C)(C)C4)cc1 | -4.01%
29 | Cc1cc(-c2ccc(S(=O)(=O)N3CCN(c4ccc(Cl)cc4)CC3)s2)on1 | -2.82%
30 | CCOC(=O)c1ccc(N2C(=O)c3[nH]nc(-c4ccc(OCC)cc4)c3C2c2cccs2)cc1 (stereo not drawn) | -2.75%
31 | CN(CC(O)CN1CCOCC1)S(=O)(=O)O (stereo not drawn) | active: 34.1%
32 | O=C(Nc1cc(-c2nc3cc(Cl)ccc3o2)ccc1Cl)c1cc([N+](=O)[O-])ccc1N1CCOCC1 | 11.1%
33 | COc1ccc2[nH]cc(CCNC(=O)c3cnn(-c4ccc(C)cc4)c3C3CCN(C(=O)OC(C)(C)C)CC3)c2c1 | 12.3%
34 | COC(=O)c1cc2oc3ccccc3c2n1Cc1nc(-c2cccc(C)c2)oc1C | -0.694%
35 | COCCN1C(=O)c2oc3ccc(C)cc3c(=O)c2C12C(=O)N(C)c1ccccc12 (stereo not drawn) | 1.34%
36 | CC(=O)Nc1ccc(NC(=O)C2(c3cccs3)CCOCC2)cc1 | 13.9%
37 | CC(C)N(Cc1ccccc1)C(=O)C1CCCN(c2ncnc3onc(-c4ccc(F)cc4)c23)C1 (stereo not drawn) | -2.89%
38 | COc1cc(CCC(=O)Nc2cccc(S(=O)(=O)N(C)C)c2)cc(OC)c1OC | active: 39.3%
39 | COc1ccccc1CNC(=O)c1cnc(SC)nc1C | 23.7%
40 | CCOC(=O)c1c(NC(=O)COc2ccc(C)cc2C(C)(C)C)sc2c1CCC(C)C2 (stereo not drawn) | 3.43%
41 | COc1ccc(OC)c(CCNC(=O)c2cnn(-c3ccc(C)cc3C)c2C2CCN(C(=O)OC(C)(C)C)CC2)c1 | -0.762%
42 | Cc1c(C(=O)N2CCC(C)CC2)c(S(=O)(=O)Nc2cccc(C(F)(F)F)c2)c(C)n1C | -5.12%
43 | Cc1ccc(Cn2c(CNC(=O)Cc3cccc(C)c3)nc3cccnc32)cc1 | -6.11%
44 | CCCCC(=O)N1CCN(c2ccc(OC)cc2[N+](=O)[O-])CC1 | active: 30%
45 | CN1CCN(S(=O)(=O)c2cccc(C(=O)Oc3ccc(C(C)(C)C)cc3)c2)CC1 | active: 34.3%
46 | COC(=O)c1ccccc1NC(=O)c1cc(CN2CCCC2)on1 | -0.116%
47 | Cc1ccc2c(c1)-c1onc(C(=O)N3CCN(c4cc(Cl)ccc4C)CC3)c1CO2 | -24%
48 | CC1Cc2ccccc2N1S(=O)(=O)c1nnc(NC(=O)c2cccc(F)c2)s1 (stereo not drawn) | -14.9%
